{"source": "PubChem BioAssay AID1347055", "about": "(National Center for Advancing Translational Sciences (NCATS), 2019)", "note": "In all, about 54,000 compounds went through this assay and about 120 (0.22%) were called active. Inconclusive results, whose numbers are uncertain, are shown with a selection of clear calls. Calls come from the whole dose curve; as a rule, active = well fitted inhibition curve with a large enough effect; inconclusive = small, poorly fitted or top-dose-only effect, or effect the other way; inactive = flat fitted curve, though single readings scatter. Potencies of inconclusive entries are left out as doubtful fits. % is set by controls: 0 for no effect and ±100 for the full control effect; potency is the fitted concentration of half-maximal effect; tags give direction and shape of the fitted curve.", "data": [{"target": "Fumarate hydratase, mitochondrial (Homo sapiens) (UniProt P07954)", "sequence (P07954 whole entry, looked up)": "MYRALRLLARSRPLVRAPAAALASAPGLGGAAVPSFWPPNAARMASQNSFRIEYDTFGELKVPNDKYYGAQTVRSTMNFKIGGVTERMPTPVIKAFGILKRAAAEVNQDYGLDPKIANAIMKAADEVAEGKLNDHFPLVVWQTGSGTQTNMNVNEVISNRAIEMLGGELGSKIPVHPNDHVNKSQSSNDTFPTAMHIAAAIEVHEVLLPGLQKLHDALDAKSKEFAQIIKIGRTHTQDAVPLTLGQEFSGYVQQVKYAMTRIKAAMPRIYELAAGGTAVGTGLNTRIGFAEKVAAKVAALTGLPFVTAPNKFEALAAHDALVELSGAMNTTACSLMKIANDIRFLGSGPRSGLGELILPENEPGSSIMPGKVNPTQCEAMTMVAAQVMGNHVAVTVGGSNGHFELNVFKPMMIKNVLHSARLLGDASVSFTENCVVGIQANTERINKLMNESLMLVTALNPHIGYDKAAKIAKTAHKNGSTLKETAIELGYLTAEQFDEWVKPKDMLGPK", "experiment": "Identification of activators of human fumarate hydratase by quantitative high-throughput screening; note: the screen sought activators but most active calls are inhibition curves; nearly all actives have a fitted effect of over 45% in size", "details": "FH coupled MDH/diaphorase resazurin fluorescence, 15 min; activity change, negative = inhibition: at 79.9 µM (top of the series)", "values": [{"compound": "C=Cc1ccc(Cn2c(C(=O)O)c(CNCc3cc(OC)ccc3OC)c3ccc(C)cc32)cc1", "Potency": "inconclusive [inhibitor, partial curve]"}, {"compound": "Clc1cc2c(NC3CCCC3)nnc(-c3ccncc3)c2cc1Cl", "Potency": "inconclusive [inhibitor, partial curve]"}, {"compound": "CCn1cc(S(=O)(=O)c2ccccc2)c(=O)c2cc(F)c(N3CCCCCC3)cc21", "Potency": "inconclusive [inhibitor, single point]"}, {"compound": "COc1ccccc1Cn1c(CNS(=O)(=O)c2c(C)cc(C)cc2C)nc2cccnc21", "Potency": "inconclusive [inhibitor, partial curve, poor fit]"}, {"compound": "Cc1cccc(N2CCN(c3c(CN4CCCC4)c(=O)oc4ccccc34)CC2)c1C", "activity change, negative = inhibition": "inactive: -2.63%"}, {"compound": "Cc1cccc(N2CCN(C(=O)Cn3nc(C)c4sc5ccccc5c4c3=O)CC2C)c1", "note": "(stereo unspecified)", "Potency": "inconclusive [inhibitor, partial curve, poor fit]"}, {"compound": "O=c1c(-c2ccc(O)cc2)coc2cc(O)cc(O)c12", "Potency": "inconclusive [inhibitor, partial curve]"}, {"compound": "COc1ccc(S(=O)(=O)Nc2ccc(O)c(Sc3nc4ccccc4s3)c2)cc1", "Potency": "inconclusive [inhibitor, single point]"}, {"compound": "Cc1cccc(N2CCN(c3ncnc4onc(-c5ccc(F)cc5)c34)CC2C)c1", "note": "(stereo unspecified)", "activity change, negative = inhibition": "inactive: -3.21%"}, {"compound": "O=C(N[C@H]1CCC[C@H](CO)C1)C1CCN(c2nc3cc(Cl)c(-c4ccc(Cl)cc4)cc3o2)CC1", "activity change, negative = inhibition": "inactive: -10.4%"}, {"compound": "Oc1cccc(-c2nc3ncccn3c2Nc2cccc(C(F)(F)F)c2)c1", "Potency": "inconclusive [inhibitor, partial curve, poor fit]"}, {"compound": "COc1ccc(C2C=C(c3ccc(C)cc3)Nc3c(C(=O)Nc4ccccc4)cnn32)cc1", "note": "(stereo unspecified)", "Potency": "inconclusive [inhibitor, partial curve, poor fit]"}, {"compound": "CCC(=O)N1c2ccccc2CC1C(=O)NCCCN1CCN(c2ccccc2)CC1", "note": "(stereo unspecified)", "Potency": "inconclusive [inhibitor, full curve, poor fit]"}, {"compound": "O=C(Nc1ccc(F)c(Cl)c1)C1CCCN(c2ncnc3onc(-c4ccc(F)cc4)c23)C1", "note": "(stereo unspecified)", "Potency": "inconclusive [inhibitor, partial curve]"}, {"compound": "CCCCN1C(=O)C(O)(CC(=O)c2ccc(CC)cc2)c2cc(Br)ccc21", "note": "(stereo unspecified)", "Potency": "inconclusive [inhibitor, single point]"}, {"compound": "Cc1cc(-c2nc(-c3ccc(OC(F)(F)F)cc3)no2)nn1Cc1ccnc(N2CCN(C3CC3)CC2)c1", "activity change, negative = inhibition": "inactive: -5.08%"}, {"compound": "COc1ccc(C(=O)Oc2c(Sc3ccccc3)c(C)nn2-c2ccccc2)c(OC)c1", "Potency": "inconclusive [inhibitor, partial curve, poor fit]"}, {"compound": "Cc1cccc(C)c1OCCn1c(CCNC(=O)C2CCCCC2)nc2ccccc21", "Potency": "inconclusive [inhibitor, single point]"}, {"compound": "O=C1CC(c2ccccc2)Sc2ccccc2N1Cc1ccccc1F", "note": "(stereo unspecified)", "Potency": "inconclusive [inhibitor, single point]"}, {"compound": "Cc1ccc2c(Sc3ccc(Cl)cc3)c(C(=O)N3CCCCC3)[nH]c2c1", "Potency": "inconclusive [inhibitor, partial curve, poor fit]"}, {"compound": "O=C(O)CN(CCOCCOCCN(CC(=O)O)CC(=O)O)CC(=O)O", "Potency": "inactive"}, {"compound": "O=C(CSc1cn(CCNC(=O)c2ccccc2F)c2ccccc12)Nc1ccc2c(c1)OCCO2", "activity change, negative = inhibition": "inactive: -5.45%"}, {"compound": "Cc1ccc(NC(=O)n2ncc3c(C)cccc32)c(C)c1", "activity change, negative = inhibition": "inactive: -2.68%"}, {"compound": "CN(Cc1ccco1)C(=O)c1ccc2c(c1)N(Cc1ccccc1F)C(=O)c1ccccc1S2", "Potency": "inconclusive [inhibitor, partial curve, poor fit]"}, {"compound": "CC(=O)N1c2ccc(S(=O)(=O)NCC3CCC(C(=O)Nc4ccc(C)cc4)CC3)cc2CC1C", "note": "(stereo unspecified)", "Potency": "inconclusive [inhibitor, partial curve, poor fit]"}, {"compound": "CCC1CN(C(=O)N2CCC(C(=O)N3CCN(c4cccc(C)c4C)CC3)CC2)c2ccccc2O1", "note": "(stereo unspecified)", "Potency": "inconclusive [inhibitor, single point]"}, {"compound": "COc1ccc(C2C=C(c3cccc(OC)c3)Nc3c(C(=O)Nc4ccccc4)cnn32)cc1", "note": "(stereo unspecified)", "Potency": "inconclusive [inhibitor, partial curve, poor fit]"}, {"compound": "C[C@@H]1O[C@@H](O[C@H]2[C@H](O[C@H]3[C@H](O[C@H]4CC[C@@]5(C)C(CC[C@]6(C)C5CC=C5[C@@H]7CC(C)(C)CC(=O)[C@]7(C)CC[C@]56C)[C@@]4(C)CO)O[C@H](C(=O)O)[C@@H](O)[C@@H]3O)O[C@H](CO)[C@H](O)[C@@H]2O)[C@H](O)[C@H](O)[C@H]1O", "note": "(stereo partly specified)", "activity change, negative = inhibition": "inactive: 3.47% [at 20.6 µM]"}, {"compound": "Cc1cccc(N2CCN(C(=O)c3cccn4c(=O)c5cc(Cl)ccc5nc34)CC2C)c1", "note": "(stereo unspecified)", "Potency": "inconclusive [inhibitor, single point]"}, {"compound": "CC(=O)N[C@@H](CC(C)C)C(=O)N[C@@H](CCC(=O)O)C(=O)N[C@@H](CCC(=O)O)C(=O)N[C@@H](CC(=O)O)C(=O)Nc1ccc2c(C(F)(F)F)cc(=O)oc2c1", "activity change, negative = inhibition": "inactive: 8.55%"}, {"compound": "CCOc1ccc(NC(=O)c2c(Nc3ccc(OC)cc3OC)sc(C(=O)c3ccc(Cl)cc3)c2N)cc1", "activity change, negative = inhibition": "inactive: -9.16%"}, {"compound": "O=C(Cn1c(=O)ccc2cc(S(=O)(=O)N3CCCC3)ccc21)NCc1ccc(Cl)cc1", "Potency": "inconclusive [inhibitor, partial curve]"}, {"compound": "CC(C)c1ccc(NS(=O)(=O)c2ccc3[nH]cc(C(=O)NC4CCCC4)c(=O)c3c2)cc1", "Potency": "inconclusive [inhibitor, partial curve, poor fit]"}, {"compound": "COc1ccc(C(CC(=O)Nc2ccc(F)c(Cl)c2)N2Cc3ccccc3C2=O)cc1OC", "note": "(stereo unspecified)", "Potency": "inconclusive [inhibitor, partial curve, poor fit]"}, {"compound": "CCN(C(=O)CSc1nc2ccccc2n1CC(=O)Nc1cccc(C#N)c1)c1ccccc1", "Potency": "inconclusive [inhibitor, single point]"}, {"compound": "COc1cc(NC(=O)c2nnn(Cc3ccc(F)cc3)c2N)cc(OC)c1", "activity change, negative = inhibition": "inactive: 1.96%"}]}]}
